Among all 48,000 compounds or so, about 120 (0.25%) were called active. Not shown: some 4% with an inconclusive outcome. Calls come from the whole dose curve; as a rule, active = well fitted activation curve with a large enough effect; inconclusive = small, poorly fitted or top-dose-only effect, or another doubt; inactive = no such curve, though single readings can be large or run the other way. This is one part of the list.

The nature of the experiment: Primary qHTS for Identification of Small Molecule Activators of Huntingtin-Antisense Promoter Activity. Note: nearly all actives have a fitted effect of over 55% in size. As to conditions: HEK293 HTT-AS promoter firefly luciferase reporter, 24 h; series mostly up to 57.5 µM; activity change, positive = activation: at the top concentration. In short, it runs like this:
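Firefly luciferase readout (Dual-Glo, 10 min RT) after 24 h, 37 °C compound exposure (final up to 57.5 uM) of HEK293 reporter cells cultured 24 h beforehand; PTC124 at 50 uM final as control inhibitor; activity scaled vehicle 0%, zero RLU -100%.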
(Quantitative high-throughput screening tests each substance at several concentrations.)
Take `O=C(CSc1ccc2nc(-c3ccccc3)cn2n1)Nc1cccc(F)c1`: the “activity change, positive = activation” value was inactive: -46.8%.
`COc1ccc(NC(=O)c2c(NC(=O)Cc3ccccc3)sc3c2CCCC3)cc1`: the “activity change, positive = activation” value was inactive: -20.3%.
`COc1ccc(NC(=O)Cn2c(=O)n(Cc3ccc(C(=O)NCc4ccccc4Cl)cc3)c(=O)c3ccccc32)cc1`: the “activity change, positive = activation” value was inactive: -17.3%.
For `COc1ccc(Cn2nnc3c(=O)[nH]c(C4CCN(C(=O)c5ccc(C)cc5)CC4)nc32)cc1OC` the value was inactive: -20.8%.
For `Cc1cc(F)ccc1NC(=O)Cn1c(=O)ccc2cc(S(=O)(=O)N3CCC(C)CC3)ccc21` the value was inactive: -31.9%; for `CCN(CC)CCCNC(=O)CN1N=C(c2ccccc2)CCC1=O`, inactive: -11%.
Consider `O=C(Nc1cccc(F)c1F)C1CCN(c2ncccn2)CC1`, for which the “activity change, positive = activation” value was inactive: -4.89%.
For `CCSc1nn(CC(=O)Nc2ccc(C(=O)OC)cc2)c(N)c1S(=O)(=O)c1ccc(C)cc1`, the “activity change, positive = activation” value is inactive: -27%.
For `COC(=O)c1cc2occc2n1CC(=O)Nc1ccc(C(C)C)cc1` the value was inactive: 4.02%.
For `O=C(Nc1ccc(F)cc1)N1CCN(C(=O)c2nsc3ccccc23)CC1` the value was inactive: -26.4%; for `COC(=O)c1cc(NC(=O)c2ccc3c(c2)NC(=O)c2ccccc2S3)cc(C(=O)OC)c1`, inactive: -9.49%; for `COc1ccc(-c2nc3c(c(SCC(=O)N4CCCCC4)n2)Cc2c(CO)cnc(C)c2O3)cc1`, inactive: -14.1%.
To `CSc1cccc(NC(=O)Cn2ncn3c(cc4ccccc43)c2=O)c1` belongs inactive: -13.2%; to `Cc1cccc(N2CCN(C(c3ccccc3)c3nnc(-c4ccccc4Cl)o3)CC2)c1C` (stereo unspecified), inactive: -13.4%; to `CCOc1ccccc1NC(=O)C(c1ccccc1)N1Cc2ccccc2C1=O` (stereo unspecified), inactive: 1.56%.
Consider `Fc1ccccc1N1CCN(c2ncc3c(n2)CCN(Cc2cc(Br)cs2)C3)CC1`, for which the “activity change, positive = activation” value was inactive: -23.2%.
For `Cn1nnc2c(N3CCN(c4cccc(C(F)(F)F)c4)CC3)ncnc21` the value was inactive: -22.1%; for `COc1ccc(OC)c(CNC(=O)CN2CC(C)Sc3ccccc32)c1` (stereo unspecified), inactive: -22.9%; for `COc1ccc(CNC(=O)c2cnc(N3CCOCC3)c3ccccc23)cc1`, inactive: -16%.
As for `N#Cc1ccccc1NC(=O)CSc1nnc(N)s1`, the “activity change, positive = activation” value is inactive: -16%.
Take `Cc1ccc(Cl)cc1N1CCN(C(=O)c2cc3c(-c4ccccc4F)nn(C)c3s2)CC1`: the “activity change, positive = activation” value was inactive: -23.3%.
For `CCc1ccc2oc(-c3cc(NC(=O)c4cc([N+](=O)[O-])ccc4N4CCOCC4)ccc3Cl)nc2c1` the value was inactive: -0.991%; for `COc1ccc(NC(=O)CSc2nc(-c3ccco3)cc(C(F)(F)F)n2)cc1Cl`, inactive: -34.6%; for `COc1ccc(-n2ncc(C(=O)N3CCOCC3)c2C2CCN(C(=O)OC(C)(C)C)CC2)cc1`, inactive: 2.92%.
To `CCCCS(=O)(=O)c1nc(-c2ccc(Br)cc2)cc(-c2ccccc2)c1C#N` belongs inactive: -43.8%.
For `Cn1c(=O)c2sccc2n2c(CCCC(=O)NCc3ccccc3)nnc12` the value was inactive: -10.5%; for `C[C@@H]1CC[C@@]2(OC1)O[C@H]1C[C@H]3[C@@H]4CC[C@H]5C[C@@H](O)CC[C@]5(C)[C@H]4CC(=O)[C@]3(C)[C@H]1[C@@H]2C`, inactive: -1.28% [at 6 µM, percent change from vehicle, -100% = no light]; for `Cc1cccc(NC(=O)CCc2c(C)nc3c(c(C)nn3C(C)(C)C)c2C)c1C`, inactive: -50.4%.
With `O=C1COc2ccc(-c3cc(-c4ccccc4)c4c(n3)-c3cc(Cl)ccc3OC4)cc2N1`, the “activity change, positive = activation” value was inactive: -6.75%.
Regarding `COc1cccc(Nc2c(C(N)=O)cnc3c(C)cc(S(=O)(=O)c4cccc(C(=O)N(C)C)c4)cc23)c1`, the “activity change, positive = activation” value is inactive: -8.49% [at 25.1 µM, percent change from vehicle, -100% = no light].
Regarding `CCN(C(=O)c1cn(CC)c(=O)c2cc(OC)c(OC)cc12)c1ccc(C)c(C)c1`, the “activity change, positive = activation” value was inactive: -28%.
In the case of `CC1CCc2c(sc3nnn(CC(=O)Nc4ccc(Cl)cc4)c(=O)c23)C1` (stereo unspecified), the “activity change, positive = activation” value is inactive: -2.44%.
To `Cc1ccc(N2CCN(S(=O)(=O)c3ccc4[nH]c5c(c4c3)CCCCC5)CC2)c(C)c1` belongs inactive: -26%; to `O=C(Nc1cccc(-c2nc3cc(Cl)ccc3o2)c1)c1cc([N+](=O)[O-])ccc1N1CCOCC1`, inactive: -1.33%.
Take `CCn1c(=O)c2cc(C(=O)Nc3cc(F)ccc3F)sc2c2ccccc21`: the “activity change, positive = activation” value was inactive: 7.46%.
`Cc1ccc(CN2CCC(CNc3ncnc4onc(-c5ccc(F)cc5)c34)CC2)cc1`: the “activity change, positive = activation” value was inactive: -19.2%.
For `CC(C)Oc1cc(Nc2nc(N[C@@H](C)c3ccc(F)cn3)ncc2Cl)[nH]n1` the value was inactive: -14%.
With `COc1ccc(CN2C(=O)c3oc4ccccc4c(=O)c3C2c2ccc(O)cc2)cc1` (stereo unspecified), the “activity change, positive = activation” value is inactive: -13.3%.
With `CCOc1cccc(C(=O)Nc2ccc(S(=O)(=O)N(Cc3ccccc3)c3ccccc3)cc2)c1`, the “activity change, positive = activation” value is inactive: -16.6%.
`COc1cccc(-c2nc(SCc3cc(=O)c4ccc(C)c(C)c4[nH]3)n[nH]2)c1`: the “activity change, positive = activation” value was inactive: -28.9%.
As for `CCOc1ccc(NC(=O)Cn2cc(C(=O)c3ccc(CC)cc3)c(=O)c3cc(C)ccc32)cc1`, the “activity change, positive = activation” value is inactive: -18.9%.
As to `Cc1ccc(Cc2nc3ccccc3nc2SCC(=O)NCCC(C)C)cc1`, the “activity change, positive = activation” value is inactive: -9.29%.
Regarding `CCCN(C(=O)c1nn(-c2ccc(OC)cc2)c(=O)c2c1c1ccccc1n2C)c1ccc(CC)cc1`, the “activity change, positive = activation” value was inactive: -11.1%.
To `Cc1ccc(Cc2c(C)nc3nc(SCC(=O)NC(C)c4ccccc4)nn3c2C)cc1` (stereo unspecified) belongs inactive: -17.5%; to `COc1ccc(S(=O)(=O)c2nnn(-c3cc(Cl)c(OC)cc3OC)c2C)cc1`, inactive: -32%.
Regarding `O=C(CSc1nc2c([nH]c3ccccc32)c(=O)n1-c1ccc(F)cc1)NCc1ccccc1`, the “activity change, positive = activation” value was inactive: -25.5%.
Turning to `C[C@]12C=CC(=O)C=C1CC[C@H]1[C@@H]3C[C@@H](O)[C@](O)(C(=O)CO)[C@@]3(C)C[C@H](O)[C@@]12F`, the “activity change, positive = activation” value is inactive: -4.82%.
Take `CCOCCCn1c(SCC(=O)Nc2ccc(C(C)C)cc2)nc2c(sc3ccccc32)c1=O`: the “activity change, positive = activation” value was inactive: -1.18%.
To `Cn1c(=O)c2c(-c3ccccc3)n3c4ccccc4nc(-c4ccccc4)c3c2n(C)c1=O` belongs inactive: 5.89% [at 11.5 µM, percent change from vehicle, -100% = no light]; to `COC(=O)c1cc2occc2n1Cc1nc(-c2ccccc2F)oc1C`, inactive: 28.9%.
As for `COc1ccc(C(=O)NCC(c2cccnc2)N2CCc3ccccc3C2)cc1OC` (stereo unspecified), the “activity change, positive = activation” value was inactive: -14.3%.
For the compound `Cc1ccc(Cl)cc1NC(=O)C(C)n1nnc2sc3c(c2c1=O)CCCC3` (stereo unspecified), the “activity change, positive = activation” value was inactive: -10.2%.
To `Cc1cccc(N2CCN(S(=O)(=O)c3ccc4c(c3)CCCN4C(=O)C3CCC3)CC2C)c1` (stereo unspecified) belongs inactive: -5.76%; to `COc1ccc(Cn2c(=O)[nH]c3cc(C(=O)N4CCN(c5cccc(Cl)c5)CC4)ccc3c2=O)cc1`, inactive: -11.5%.
On to `Cn1c(=O)n(-c2ccc(Br)cc2F)c(=O)c2sc3ccccc3c21`, for which the “activity change, positive = activation” value was inactive: 0.458%.
Take `CCOc1ccc(NC(=O)CN2C(=O)C(c3ccccc3)=NC23CCC(C)CC3)cc1` (stereo unspecified): the “activity change, positive = activation” value was inactive: -27.8%.

Source of the values: PubChem BioAssay AID1508624 (National Center for Advancing Translational Sciences (NCATS), 2021).
